Reference: PubChem BioAssay AID662 (National Center for Advancing Translational Sciences (NCATS), 2007)
Among all 71,000 compounds or so, about 1,800 (2.5%) were called active. This list was built around the results that the source calls inconclusive (neither active nor inactive); the mix of calls is not that of the screen. The call rests on the fitted dose curve; in most records, active means well fitted activation curve with a large enough effect in the signal ratio, with a control signal flat (not every such curve was filed as active); inconclusive means small, poorly fitted or top-dose-only effect, or effect the other way, or a change in a side signal; inactive means flat fitted curve, though single readings scatter; the % refers to the signal ratio. Potencies beside an inconclusive call are fits to weak or partial responses and may not hold up.

Assay: Cell signaling CRE-BLA (Fsk stim); on activity change, negative = inhibition: % of control where 0% means no effect
Conditions: CHO CRE-bla reporter (cAMP response element driving beta-lactamase), forskolin EC10, beta-lactamase ratio; activity change, negative = inhibition: at 38.2 µM (top of the series) unless noted
Procedure, shortened: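 qHTS titration format; CRE-bla CHO reporter; stimulus EC10 NKH 477, a water-soluble forskolin. Read: CCF4 460/530 nm ratio. Potency expressed as AC50 for activators or inhibitors.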
Potency means the concentration at half of the fitted maximal effect; tags describe the fitted curve by direction and shape.

Row | SMILES | activity change, negative = inhibition | Potency
1 | O=C(COC(=O)C1CC1)c1c[nH]c2ccccc12 | inconclusive: -14.6% | –
2 | CN(CCNC(=O)c1cc2c(=O)n(C)c3ccccc3c2n1C)Cc1ccccc1 | – | inconclusive: 7.94 µM [rising, partial curve]
3 | O[C@H](COc1ccccc1)CN1CCCCC1 | inactive: 10.2% [at 7.6 µM] | –
4 | CN1CCN(c2ncc3nc(-c4ccccc4)c(=O)n(CCc4ccccc4)c3n2)CC1 | – | inconclusive: 10 µM [rising, partial curve]
5 | CC1(C)Cc2c(sc3c2c2ncnn2c2nnc(SCC(=O)NCc4ccco4)n32)CO1 | – | inconclusive: 6.31 µM [rising, partial curve]
6 | Cc1c(OCc2nn[nH]n2)ccc2c(-c3ccccc3)cc(=O)oc12 | inactive: -3.3% | –
7 | Cc1cc(C(=O)N(C)CC(=O)Nc2ccccc2C(F)(F)F)c(C)o1 | – | inconclusive: 5.01 µM [falling, single point]
8 | C[Si](C)(C)C#Cc1ccccc1NC(=S)Nc1ccccc1 | inactive: 1.61% | –
9 | COc1ccc(CNc2ncnc3ccc(-c4ccccc4C#N)cc23)c(OC)c1 | – | active: 3.16 µM
10 | COc1cccc(NS(=O)(=O)c2ccc3[nH]cc(C(=O)NCCN4CCOCC4)c(=O)c3c2)c1 | inconclusive: -13.8% | –
11 | N#Cc1cnc(SCC(=O)Nc2ccccc2C(F)(F)F)nc1N | – | inconclusive: 15.8 µM [rising, single point]
12 | COCCn1c(=O)c(-c2cccs2)nc2cnc(OCc3ccccc3)nc21 | – | active: 2.51 µM
13 | COC(=O)C1C(=O)N2CCCSC2=C(C#N)C1c1cccs1 (centres undefined) | inactive: -3.73% | –
14 | Cc1[nH]c(C)c(C(=O)O)c1CNC1CCCCC1C (centres undefined) | inconclusive: 5.97% | –
15 | CC(=O)Nc1sc2c(c1C(c1cccs1)N1CCOCC1)CCCC2 (centres undefined) | – | inconclusive: 15.8 µM [falling, single point]
16 | CCOc1ccc2c(c1)C(C)=CC(C)(C)N2 | inconclusive: 26.8% | –
17 | CCC(C)(C(=O)NC1CCCC1)N(C(=O)c1cnccn1)c1ccccc1 (centres undefined) | inactive: 4.41% | –
18 | Cn1c(-c2ccc3c(c2)OCO3)cnc1NCc1ccccc1 | inactive: -13.6% | –
19 | COc1ccc(OC)c(-c2nnc(-c3ccc(C)o3)o2)c1 | inconclusive: 29.7% | –
20 | CCn1nc(NC(=O)c2ccncc2)c2cc3ccc(C)cc3nc21 | – | active: 12.6 µM
21 | Cc1oc(C(=O)O)cc1COc1ccc2c(C)cc(=O)oc2c1 | inactive: -3.92% | –
22 | Cc1ccc(C)c(N2CCN(C(=O)C3CCN(c4nc(C)cc(C)n4)CC3)CC2)c1 | inconclusive: -29.4% | –

Row | SMILES | activity change, negative = inhibition | Potency
23 | O=C(CCS(=O)(=O)c1ccc(Br)cc1)N1CCN(Cc2ccccc2)CC1 | inconclusive: -10.6% | –
24 | CSc1nsc(SCc2ccc(F)cc2)n1 | inconclusive: -0.88% | –
25 | COC(=O)c1cc(CSc2nc3ccc(C)cc3[nH]2)oc1C | – | inconclusive: 5.01 µM [rising, partial curve]
26 | COc1ccc(CN(C(=O)c2ccco2)c2ccc(Br)cc2)cc1OC | inconclusive: 15.3% | –
27 | Cn1cccc1Cc1nnc(SCC(=O)Nc2ccccc2F)n1CCc1ccccc1 | inactive: -15.7% | –
28 | CCCCN1C(=O)C(O)(CC(=O)c2c(C)n[nH]c2C)c2cc(Br)ccc21 (centres undefined) | – | inconclusive: 15.8 µM [falling, partial curve]
29 | Cn1c(=O)c2[nH]c(C3CCCC3)nc2n(C)c1=O | inconclusive: -26.2% | –
30 | CCSc1ccccc1C(=O)Nc1cccc(OC)c1 | inactive: -1.09% | –
31 | c1ccc2c(N3CCNCC3)nc(-c3ccoc3)nc2c1 | inactive: 14.3% | –
32 | CCOc1ccc(N2CC(=O)SC2=S)cc1 | inconclusive: -19.1% | –
33 | O=C(NCCCNC1CCCCC1)c1ccc(/C=N/O)nc1 | inactive: -3.07% | –
34 | CCS(=O)(=O)c1ccc2oc(SCC(=O)c3ccco3)nc2c1 | – | inconclusive: 15.8 µM [rising, single point]
35 | COc1ccccc1-c1c(C)c(C)nc(N)c1C#N | inactive: 12.8% | –
36 | c1ccc(-n2nnnc2SCc2cn3ccccc3n2)cc1 | inconclusive: 20.6% | –
37 | CCOC(=O)CSc1nc2cc(C)ccc2cc1C#N | inconclusive: 22.5% | –
38 | N=c1n(CCN2CCOCC2)c2ccccc2n1CC(=O)c1ccc(Cl)c(Cl)c1 | inconclusive: -5.5% | –
39 | Cc1ccccc1OC(C)C(=O)NC1CCCC1 (centres undefined) | inconclusive: -15.5% | –
40 | CCC(=O)NCCc1cc2cc(C)c(C)cc2[nH]c1=O | inactive: 5.08% | –
41 | Cn1nc(C(C)(C)C)cc1C(=O)Nc1nc2c(s1)C(=O)CC(C)(C)C2 | inconclusive: 29.7% | –
42 | CC1CN(c2oc(-c3ccco3)nc2C#N)CC(C)O1 (centres undefined) | inconclusive: 16% | –
43 | CCOc1ccc(-c2nnc(-c3ccncc3)o2)cc1 | inactive: 9.63% | –
44 | O=C(c1cc(-c2ccc(F)cc2)on1)N1CCCC1 | inconclusive: 0.481% | –
